# Out of some 220,000 compounds screened, about 16,000 (7.3%) were called active. The inconclusive results got no clear call from the source; some entries with a clear call stand among them for comparison. Calls follow the shape of the dose curve; as a rule, active = well fitted inhibition curve with a large enough effect (not every such curve was filed as active); inconclusive = small, poorly fitted or top-dose-only effect, or another doubt; inactive = no such curve, though single readings can be large or run the other way. Potencies of inconclusive entries are left out as doubtful fits.
# Molecular target: Aldehyde dehydrogenase 1A1 (Homo sapiens) (UniProt P00352)
# Sequence of UniProt P00352 (P00352 whole entry, looked up): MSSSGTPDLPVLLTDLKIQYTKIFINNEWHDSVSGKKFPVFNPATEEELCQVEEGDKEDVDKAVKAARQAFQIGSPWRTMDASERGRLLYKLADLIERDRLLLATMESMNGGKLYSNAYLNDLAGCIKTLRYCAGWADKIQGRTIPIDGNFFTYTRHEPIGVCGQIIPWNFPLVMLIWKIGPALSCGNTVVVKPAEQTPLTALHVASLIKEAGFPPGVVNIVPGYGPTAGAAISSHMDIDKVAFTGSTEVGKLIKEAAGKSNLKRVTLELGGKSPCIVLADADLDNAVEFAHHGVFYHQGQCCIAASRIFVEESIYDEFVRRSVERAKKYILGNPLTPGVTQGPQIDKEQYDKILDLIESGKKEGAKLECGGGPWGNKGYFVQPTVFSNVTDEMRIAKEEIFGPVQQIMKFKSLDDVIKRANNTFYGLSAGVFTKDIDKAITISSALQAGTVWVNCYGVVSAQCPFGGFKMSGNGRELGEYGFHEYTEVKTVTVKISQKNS
# Experiment: qHTS Assay for Inhibitors of Aldehyde Dehydrogenase 1 (ALDH1A1);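 as to activity, negative = inhibition: plate controls were no enzyme wells and a reference inhibitor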
# Details: Purified ALDH1A1, NADH fluorescence, propionaldehyde substrate; series mostly up to 75.3 µM; activity, negative = inhibition: at the top concentration
# Potency is read from the fitted curve at half-maximal effect; tags tell the direction and shape of the fitted curve.
Compound,Potency,"activity, negative = inhibition"
Cc1nn(-c2ccccc2)c(C)c1/C=N/NC(=O)CSc1nnc(SCc2cccc3ccccc23)s1,"inconclusive [inhibitor, partial curve]",
CCOC(=O)c1c(-c2cccc3ccccc23)csc1NC(=O)C1C2CCC(O2)C1C(=O)O (stereo not drawn),,inactive: 2.84%
Clc1ccc2oc(-c3cccnc3NCc3ccccc3)nc2c1,"inconclusive [inhibitor, partial curve]",
O=S(=O)(Nc1cccc(-c2cn3cccnc3n2)c1)c1ccc(F)cc1,"inconclusive [inhibitor, partial curve]",
CCOC(=O)/C=C/CCCC=O,,inactive: 6.21%
CC(C)(C)NC(=O)NC(=O)COC(=O)c1ccc(OC(F)(F)F)cc1,,inactive: -4.26%
Cc1cc(C(=O)CSc2nc3ccccc3o2)c(C)n1CC1CCCO1 (stereo not drawn),,inactive: -9.52%
Cc1nc(N2CCOCC2)c2cc(-c3ccccc3)sc2n1,"inconclusive [inhibitor, single point]",
Cn1ncc2c(NNC(=O)Cc3ccccc3)ncnc21,,inactive: 7.75%
O=C(COC(=O)COc1ccccc1)Nc1ccc(S(=O)(=O)N2CCOCC2)cc1,active: 31.6 µM,
COc1cccc(NC(=O)Cn2c(=O)oc3ccccc32)c1,,inactive: 1.25%
O=C(CNc1cc(S(=O)(=O)N2CCOCC2)ccc1N1CCCC1)N1CCc2ccccc21,active: 25.1 µM,
C/C(=N/O)c1ccc(N2C(=O)C3C4C=CC(C3C2=O)C2C3C(=O)N(c5ccc(/C(C)=N/O)cc5)C(=O)C3C42)cc1 (stereo not drawn),"inconclusive [inhibitor, partial curve]",
Cc1nn(CCO)c(N)c1C1(O)C(=O)Nc2c(Cl)cc(Cl)cc21 (stereo not drawn),"inconclusive [inhibitor, single point]",
Cc1ccc(S(=O)(=O)N2CCN(c3ccc([N+](=O)[O-])c(NCCN4CCOCC4)c3)CC2)cc1,,inactive: 5.72%
Cc1ccc(C(C)C)cc1OCCCCN1CCCC1,"inconclusive [inhibitor, single point]",
Cc1cc([N+](=O)[O-])nn1CC(=O)NNC(=S)Nc1ccc([N+](=O)[O-])cc1,active: 22.4 µM,
Fc1ccc(C2=NCCC(c3ccccc3)O2)cc1 (stereo not drawn),,inactive: -9.95% [at 120 µM]
Clc1ccc(CCNc2ncnc3nc[nH]c23)cc1,,inactive: 13.7%

Compound,Potency,"activity, negative = inhibition"
CN(CC(=O)O)S(=O)(=O)c1ccc2c(c1)n(C)c(=O)c(=O)n2C,"inconclusive [inhibitor, full curve]",
C=CC(=O)NCC1OCCc2ccccc21 (stereo not drawn),"inconclusive [inhibitor, single point]",
Cc1ccc(OCCn2c3ccccc3n3nc(C)c(=O)nc23)cc1,"inconclusive [inhibitor, partial curve]",
COc1cc(CCC(=O)OCC(=O)NC2CCCC(C)C2C)cc(OC)c1OC (stereo not drawn),"inconclusive [inhibitor, single point]",
COC(=O)c1ccccc1NC(=O)c1cc(-c2ccc(C)cc2)on1,,inactive: 9.85%
Cc1ccc2n(n1)c(=O)c(Cc1ccccc1)c([O-])[n+]2-c1ccccc1,"inconclusive [inhibitor, single point]",
O=C(Nc1ccc(-c2nc3ccc(NC(=O)c4cccs4)cc3[nH]2)cc1)c1cccs1,"inconclusive [inhibitor, single point]",
CCC1C(C#N)=C(SC)NC2=C1C(=O)CC(C)(C)C2 (stereo not drawn),"inconclusive [inhibitor, single point]",
COc1ccc(OC)c(NC(=O)c2cc(S(=O)(=O)NCc3ccco3)ccc2F)c1,active: 22.4 µM,
N#Cc1cccc(NC(=O)N2CC[C@@]3(CCCNC3)C2)c1,"inconclusive [inhibitor, single point]",
CC(Oc1ccc(F)cc1)c1ccnc2nc(/N=C/N(C)C)nn12 (stereo not drawn),"inconclusive [inhibitor, single point]",
O=[N+]([O-])c1ccc(N2CCN(C(=S)Nc3ccccc3)CC2)cc1,active: 1.41 µM,
O=C(CC1C(=O)NCCN1C(=S)Nc1ccccc1)Nc1ccc(F)cc1 (stereo not drawn),"inconclusive [inhibitor, single point]",
CCO[C@@H]1OC(C(=O)N2CCN(Cc3ccccc3)CC2)=C[C@H](c2ccc(Br)cc2)[C@H]1CCCO,"inconclusive [inhibitor, single point]",
CC(C)c1nnc(NC(=O)c2sc3ccccc3c2Cl)s1,"inconclusive [inhibitor, single point]",
CCOc1cc2c(cc1OCC)C(C(=O)O)C(c1cc(Br)c(O)c(OC)c1)N(C)C2=O (stereo not drawn),"inconclusive [inhibitor, single point]",
CCc1noc(C)c1C(=O)Nc1nnc(C2CCCCC2)s1,"inconclusive [inhibitor, single point]",
CCN(CC)C(=O)COc1cc(C)cc2oc(=O)cc(-c3ccccc3)c12,"inconclusive [inhibitor, partial curve]",
COc1ccccc1NC(=O)CN1CCN(CC(=O)Nc2ccc(OCc3ccccc3)cc2)CC1,"inconclusive [inhibitor, single point]",

# — PubChem BioAssay AID1030 (National Center for Advancing Translational Sciences (NCATS), 2008)
